Results reported in the supplement of paper PMC11741623.
Some of the results follow. Interaction screen of human proteins with wild-type SARS-CoV-2 proteins by split-DHFR complementation in yeast, 1 µg/mL methotrexate. Value = fitness of the pair (three or more lineages) minus that of the viral protein without a human partner, on a scale set by negative (0) and fused positive (1) controls, mean of up to three cultures; higher = more likely to interact. Active = false discovery rate below 0.05 (one-sided t-test) in at least one culture. Nearly all pairs are not hits, and differences among them are mostly noise (correlation between cultures about 0.3); most hits were seen in one culture only. Human sequences are the Swiss-Prot entries looked up by gene name; the clone may be another isoform. NSP2 values were corrected by the authors for a growth advantage. Listed are human proteins with a hit and a random twelfth of the others.

B1: DEF8, Q6ZN54 (protein)
chain: MAILSLRAPGPWQAMQVWADRTLLTPHTGVTSQVLGVAAAVMTPLPGGHAAGRTREARWDAMEYDEKLARFRQAHLNPFNKQSGPRQHEQGPGEEVPDVTPEEALPELPPGEPEFRCPERVMDLGLSEDHFSRPVGLFLASDVQQLRQAIEECKQVILELPEQSEKQKDAVVRLIHLRLKLQELKDPNEDEPNIRVLLEHRFYKEKSKSVKQTCDKCNTIIWGLIQTWYTCTGCYYRCHSKCLNLISKPCVSSKVSHQAEYELNICPETGLDSQDYRCAECRAPISLRGVPSEARQCDYTGQYYCSHCHWNDLAVIPARVVHNWDFEPRKVSRCSMRYLALMVSRPVLRLREINPLLFSYVEELVEIRKLRQDILLMKPYFITCREAMEARLLLQLQDRQHFVENDEMYSVQDLLDVHAGRLGCSLTEIHTLFAKHIKLDCERCQAKGFVCELCREGDVLFPFDSHTSVCADCSAVFHRDCYYDNSTTCPKCARLSLRKQSLFQEPGPDVEA
B2: TMEM9, Q9P0T7 (protein)
chain: MKLLSLVAVVGCLLVPPAEANKSSEDIRCKCICPPYRNISGHIYNQNVSQKDCNCLHVVEPMPVPGHDVEAYCLLCECRYEERSTTTIKVIIVIYLSVVGALLLYMAFLMLVDPLIRKPDAYTEQLHNEEENEDARSMAAAAASLGGPRANTVLERVEGAQQRWKLQVQEQRKTVFDRHKMLS

Each binder was assayed against SARS-CoV-2 E (assay: yeast fitness gain over the viral ORF with no human partner (scaled fitness); higher = more likely to interact).
Protocol: (§1)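 Split mouse DHFR complementation in pooled diploid yeast: human ORFeome clones carry one fragment and viral ORFs the other; barcoded lineages compete in 1 µg/mL methotrexate and fitness is read by barcode sequencing in up to three cultures.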

| Binder | yeast fitness gain |
| --- | --- |
| B1 | inactive: -0.04 |
| B2 | inactive: -0.117 |

What follows are binders tested against SARS-CoV-2 M in the same assay as above.
Protocol: as §1

| Binder | yeast fitness gain |
| --- | --- |
| B1 | inactive: 0.0665 |
| B2 | inactive: 0.144 |

What follows are binders tested against SARS-CoV-2 NSP1 in the same assay as above.
Protocol: as §1

| Binder | yeast fitness gain |
| --- | --- |
| B1 | inactive: 0.0737 |
| B2 | inactive: 0.0411 |

The binders below were run against SARS-CoV-2 NSP10 in the same assay as above.
Protocol: as §1

| Binder | yeast fitness gain |
| --- | --- |
| B1 | inactive: 0.0586 |
| B2 | inactive: 0.0481 |

These binders were tested against SARS-CoV-2 NSP12 in the same assay as above.
Protocol: as §1

| Binder | yeast fitness gain |
| --- | --- |
| B1 | inactive: 0.103 |
| B2 | inactive: -0.0839 |

Each binder was assayed against SARS-CoV-2 NSP13 in the same assay as above.
Protocol: as §1

| Binder | yeast fitness gain |
| --- | --- |
| B1 | inactive: 0.0537 |
| B2 | inactive: 0.0181 |

The binders below were run against SARS-CoV-2 NSP14 in the same assay as above.
Protocol: as §1

| Binder | yeast fitness gain |
| --- | --- |
| B1 | inactive: 0.19 |
| B2 | inactive: -0.00236 |

These binders were tested against SARS-CoV-2 NSP2 in the same assay as above.
Protocol: as §1

| Binder | yeast fitness gain |
| --- | --- |
| B1 | inactive: -0.149 |
| B2 | inactive: -0.133 |

What follows are binders tested against SARS-CoV-2 NSP4 in the same assay as above.
Protocol: as §1

| Binder | yeast fitness gain |
| --- | --- |
| B1 | inactive: 0.0864 |
| B2 | inactive: -0.299 |

These binders were tested against SARS-CoV-2 NSP5 in the same assay as above.
Protocol: as §1

| Binder | yeast fitness gain |
| --- | --- |
| B1 | inactive: 0.0692 |
| B2 | inactive: -0.103 |

These binders were tested against SARS-CoV-2 NSP6 in the same assay as above.
Protocol: as §1

| Binder | yeast fitness gain |
| --- | --- |
| B1 | inactive: 0.0742 |
| B2 | inactive: 0.0021 |

What follows are binders tested against SARS-CoV-2 NSP7 in the same assay as above.
Protocol: as §1

| Binder | yeast fitness gain |
| --- | --- |
| B1 | inactive: -0.0692 |
| B2 | inactive: -0.127 |

The binders below were run against SARS-CoV-2 NSP8 in the same assay as above.
Protocol: as §1

| Binder | yeast fitness gain |
| --- | --- |
| B1 | inactive: 0.0944 |
| B2 | inactive: -0.0345 |

These binders were tested against SARS-CoV-2 NSP9 in the same assay as above.
Protocol: as §1

| Binder | yeast fitness gain |
| --- | --- |
| B1 | inactive: 0.144 |
| B2 | inactive: -0.383 |

Each binder was assayed against SARS-CoV-2 ORF10 in the same assay as above.
Protocol: as §1

| Binder | yeast fitness gain |
| --- | --- |
| B1 | inactive: 0.0421 |
| B2 | inactive: -0.067 |

The binders below were run against SARS-CoV-2 ORF3B in the same assay as above.
Protocol: as §1

| Binder | yeast fitness gain |
| --- | --- |
| B1 | inactive: -0.000483 |
| B2 | inactive: 0.0838 |

What follows are binders tested against SARS-CoV-2 ORF6 in the same assay as above.
Protocol: as §1

| Binder | yeast fitness gain |
| --- | --- |
| B1 | inactive: 0.0822 |
| B2 | inactive: 0.0502 |

These binders were tested against SARS-CoV-2 ORF7A in the same assay as above.
Protocol: as §1

| Binder | yeast fitness gain |
| --- | --- |
| B1 | inactive: -0.0973 |
| B2 | inactive: 0.0624 |

The binders below were run against SARS-CoV-2 ORF7B in the same assay as above.
Protocol: as §1

| Binder | yeast fitness gain |
| --- | --- |
| B1 | inactive: -0.0518 |
| B2 | inactive: 0.0489 |

The binders below were run against SARS-CoV-2 ORF8 in the same assay as above.
Protocol: as §1

| Binder | yeast fitness gain |
| --- | --- |
| B1 | inactive: 0.0113 |
| B2 | inactive: 0.108 |

The binders below were run against SARS-CoV-2 ORF9B in the same assay as above.
Protocol: as §1

| Binder | yeast fitness gain |
| --- | --- |
| B1 | inactive: 0.0186 |
| B2 | inactive: -0.0431 |

The binders below were run against SARS-CoV-2 ORF9Bwu (the 73-codon ORF) in the same assay as above.
Protocol: as §1

| Binder | yeast fitness gain |
| --- | --- |
| B1 | inactive: 0.0807 |
| B2 | inactive: -0.0873 |

The binders below were run against SARS-CoV-2 S in the same assay as above.
Protocol: as §1

| Binder | yeast fitness gain |
| --- | --- |
| B1 | inactive: 0.213 |
| B2 | inactive: 0.0104 |

The binders below were run against SARS-CoV-2 N in the same assay as above.
Protocol: as §1

| Binder | yeast fitness gain |
| --- | --- |
| B2 | inactive: 0.0218 |

The binders below were run against SARS-CoV-2 NSP15 in the same assay as above.
Protocol: as §1

| Binder | yeast fitness gain |
| --- | --- |
| B2 | inactive: 0.0633 |

These binders were tested against SARS-CoV-2 NSP16 in the same assay as above.
Protocol: as §1

| Binder | yeast fitness gain |
| --- | --- |
| B2 | inactive: 0.0228 |

These binders were tested against SARS-CoV-2 ORF3A in the same assay as above.
Protocol: as §1

| Binder | yeast fitness gain |
| --- | --- |
| B2 | inactive: 0.0326 |
